{"source": "PubChem BioAssay AID651820", "about": "(National Center for Advancing Translational Sciences (NCATS), 2012)", "note": "About 12,000 (3.5%) of roughly 340,000 compounds were called active. The shares of active, inactive and inconclusive entries below differ from those in the screen. Calls come from the whole dose curve; as a rule, active = well fitted inhibition curve with a large enough effect; inconclusive = small, poorly fitted or top-dose-only effect, or another doubt; inactive = no such curve, though single readings can be large or run the other way. No potency is given beside an inconclusive call; the fits are too rough. % is set by controls: 0 for no effect and ±100 for the full control effect; potency is the fitted concentration of half-maximal effect; tags give direction and shape of the fitted curve.", "data": [{"assay": "qHTS Assay for Inhibitors of Hepatitis C Virus (HCV)", "settings": "Huh7.5.1 HCVcc-Cre (HCVcc is cell-culture hepatitis C virus) infection, luciferase reporter, 44 h; activity change, negative = inhibition: at 41.8 µM (top of the series)", "procedure,_shortened": "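Compounds are dispensed onto cells plated 4 h earlier at 1,000 per well, with HCVcc-Cre virus (about 0.5 moi) added next. Following 44 h of culture, luminescent signal is measured for 15 sec after 15 min with substrate at room temperature.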", "values": [{"smiles": "CCn1cc(CNC(=O)c2cc(-c3cc(OC)ccc3OC)nc3ccccc23)c(C)n1", "Potency": "inconclusive [inhibitor, partial curve]"}, {"smiles": "Cc1cc(C(=O)N/N=C/c2ccc[nH]2)no1", "Potency": "inconclusive [inhibitor, partial curve]"}, {"smiles": "COc1ccc(S(=O)(=O)N2CCC(CN3C(=O)c4cccc5cccc(c45)C3=O)CC2)cc1", "Potency": "inconclusive [inhibitor, single point]"}, {"smiles": "CCN(CC)S(=O)(=O)c1ccc(N2CCOCC2)c(NC(=O)c2cc3ccccc3oc2=O)c1", "Potency": "inconclusive [inhibitor, single point]"}, {"smiles": "COC(=O)c1ccccc1NC(=S)N(Cc1ccc2c(c1)OCO2)Cc1cc2ccc(OC)cc2[nH]c1=O", "Potency": "inconclusive [inhibitor, single point]"}, {"smiles": "COc1ccc(/C=C/C(=O)Nc2cc(F)ccc2C)cc1S(=O)(=O)N1CCOCC1", "Potency": "inconclusive [inhibitor, partial curve]"}, {"smiles": "Cc1cccc(C)c1NC(=O)CSCC(=O)c1ccc(O)c(O)c1", "Potency": "inconclusive [inhibitor, single point]"}, {"smiles": "COc1ccc(NS(=O)(=O)c2ccc(SC)cc2)c(OC)c1", "Potency": "inconclusive [inhibitor, partial curve]"}, {"smiles": "CCN(CC)S(=O)(=O)c1ccc(C(=O)NCc2n[nH]c(=S)n2-c2ccccc2OC)cc1", "Potency": "inconclusive [inhibitor, single point]"}, {"smiles": "O=C(c1ccccc1)c1ccc(NCCCn2ccnc2)c([N+](=O)[O-])c1", "Potency": "active: 35.5 µM"}, {"smiles": "CCc1[nH]nc2c1C1(CCN(C(=O)OCc3ccccc3)CC1)C(C#N)=C(N)O2", "activity change, negative = inhibition": "inactive: 0.0028%"}, {"smiles": "COC(=O)c1cnc(SCC(=O)c2ccccc2)n1C", "activity change, negative = inhibition": "inactive: -9%"}, {"smiles": "CCCCN1C(N)=NC[C@@H]1CC1CCCCC1", "activity change, negative = inhibition": "inactive: 17%"}, {"smiles": "CCCCn1nc2cc(C(=O)NCCc3cccs3)ccc2c1OCC", "Potency": "inconclusive [inhibitor, partial curve]"}, {"smiles": "Cc1cccc(N(C(=O)c2csnn2)C(C(=O)NC2CCCCC2)c2ccncc2)c1", "note": "(configuration not stated)", "activity change, negative = inhibition": "inactive: 13.3%"}, {"smiles": "Clc1nc(Cl)c2ncn(-c3ccccc3)c2n1", "Potency": "inconclusive [inhibitor, single point]"}, {"smiles": "CCCC(=O)N(c1ccc(OCC)cc1)S(=O)(=O)c1ccc2c3c(cccc13)C(=O)N2C", "Potency": "inconclusive [inhibitor, partial curve]"}, {"smiles": "O=C(/C=C/c1cccc([N+](=O)[O-])c1)NCc1ccco1", "activity change, negative = inhibition": "inactive: 7.09%"}, {"smiles": "O=C(NCCc1ccccc1O)c1cc2c(cc1[N+](=O)[O-])OCO2", "activity change, negative = inhibition": "inactive: 10%"}, {"smiles": "Cc1ccc(NC(=O)CCCNC(=O)c2ccc(Cl)cc2)cc1S(=O)(=O)N1CCOCC1", "Potency": "inconclusive [inhibitor, partial curve]"}, {"smiles": "O=C(N/N=C/c1c[nH]c2ccccc12)c1cc(-c2ccc3ccccc3c2)n[nH]1", "Potency": "active: 10 µM"}, {"smiles": "CC1CCC(C(C)C)C2=C1C(C#N)(C#N)C(C#N)(C#N)C(c1ccccc1)N2", "note": "(configuration not stated)", "Potency": "inconclusive [inhibitor, single point]"}, {"smiles": "Cc1cccc(OCCCC(=O)NNC(=O)c2ccc(F)cc2)c1", "activity change, negative = inhibition": "inactive: 11.4%"}, {"smiles": "CN=c1scc(-c2cccs2)n1/N=C/c1ccccc1O", "Potency": "active: 12.6 µM"}, {"smiles": "CN(CC(=O)Nc1ccc(F)cc1)C(=O)COc1ccc(C(=O)c2ccccc2)cc1", "Potency": "inconclusive [inhibitor, partial curve]"}, {"smiles": "COc1cccc(-c2nnc(-c3ccc4ccccc4c3)o2)c1", "activity change, negative = inhibition": "inactive: -17.9%"}, {"smiles": "CC(Nc1cc(C)cc(C)c1)=[N+](C)CCNS(=O)(=O)c1ccc(Cl)cc1", "activity change, negative = inhibition": "inactive: 0.917%"}, {"smiles": "COC(=O)/C(=C\\c1cccnc1)NC(=O)c1ccc(OCc2ccccc2)cc1", "Potency": "inconclusive [inhibitor, single point]"}, {"smiles": "N=C1C(=O)OCC1c1ccccc1NC(=O)CN1CCCCC1", "note": "(configuration not stated)", "Potency": "inconclusive [inhibitor, single point]"}, {"smiles": "COc1cccc(NC(=O)CSc2nc(C)cs2)c1", "Potency": "inconclusive [inhibitor, single point]"}, {"smiles": "CN1CCc2nc(NC(=O)c3cccc(S(=O)(=O)N4CCc5ccccc54)c3)sc2C1", "Potency": "inconclusive [inhibitor, single point]"}, {"smiles": "Cc1cc(=O)n2c3ccccc3n(CC(O)CN3CCC(C)CC3)c2c1C#N", "note": "(configuration not stated)", "Potency": "inconclusive [inhibitor, full curve]"}, {"smiles": "CCOc1ccc(-c2nnn(CC(=O)Nc3cc(OC)cc(OC)c3)n2)cc1OCC", "Potency": "inconclusive [inhibitor, partial curve]"}, {"smiles": "Cc1ccc(NC(=O)COc2ccccc2C(=O)Nc2ccccc2)cc1Cl", "activity change, negative = inhibition": "inactive: -8.95%"}, {"smiles": "CCC(C)N(CC(=O)Nc1cccc(C)c1C)C(=O)CCl", "note": "(configuration not stated)", "Potency": "active: 1.26 µM"}, {"smiles": "COc1ccc(CCNC(=O)C(=O)NCC2OCCCN2S(=O)(=O)c2cc(C)ccc2C)cc1", "note": "(configuration not stated)", "Potency": "inconclusive [inhibitor, single point]"}, {"smiles": "O=C(Nc1ccccc1C(=O)O)c1cccc(F)c1", "activity change, negative = inhibition": "inactive: 14.5%"}, {"smiles": "Cc1cc(C(=O)NC2CCCc3c2cnn3-c2cc(F)cc(F)c2)nn1C", "note": "(configuration not stated)", "activity change, negative = inhibition": "inactive: -4.97%"}, {"smiles": "CCN(CC)CCNC(=O)CCCCn1c(=S)[nH]c2c([nH]c3ccc(OC)cc32)c1=O", "activity change, negative = inhibition": "inactive: 14.7%"}, {"smiles": "CCOc1ccc(C(=O)Nc2cccc(-c3cc4ccccc4oc3=O)c2)cc1[N+](=O)[O-]", "Potency": "inconclusive [inhibitor, partial curve]"}, {"smiles": "CCn1c2ccccc2c2nc3cc(S(=O)(=O)N4CCOCC4)ccc3nc21", "Potency": "active: 10 µM"}, {"smiles": "CCOP(=O)(c1ccc(N(C)C)cc1)C(O)c1c(Cl)cccc1Cl", "note": "(configuration not stated)", "activity change, negative = inhibition": "inactive: 13.4%"}, {"smiles": "CC(/C=C/c1ccco1)=N\\NC(=O)c1cccc(Cl)c1", "Potency": "inconclusive [inhibitor, single point]"}, {"smiles": "COc1ccc(NC(=O)CN2CCN(CC(=O)Nc3ccccc3OC)CC2)c(OC)c1", "activity change, negative = inhibition": "inactive: -19.4%"}, {"smiles": "CC1(C)CC2CC(C)(CN2C(=O)COC(=O)c2ccccc2C(F)(F)F)C1", "note": "(configuration not stated)", "Potency": "inconclusive [inhibitor, single point]"}, {"smiles": "CC(C)NCCOc1cccc(Br)c1", "activity change, negative = inhibition": "inactive: 24.7%"}, {"smiles": "Cc1ccc2nc(-c3ccc(NC(=O)Cc4cccs4)cc3)[nH]c2c1", "Potency": "active: 11.2 µM"}]}]}
